The supplement of paper PMC10600219
Where “and” joins values, the source holds several entries; their conditions need not be identical. Identical values can stand only once. Counter-ions that a name gives are not always drawn. The full ranking holds about 2,800 compounds; the median of “cell viability relative to vehicle” is about 1.1, and the lowest 2% start at about 0.19. Some of the results follow.

tested on: NCI-H2228 parental; test: cell viability relative to vehicle (fraction of vehicle); NCI-H2228 is an ALK-positive lung cancer line and DTP means drug-tolerant persister; higher = less growth inhibition; conditions: 100 nM; treatment time 6 days
How it was run: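 Parental NCI-H2228 cells and drug-tolerant persister cells (made with 1000 nM of a targeted drug for 13 days) were seeded in 384-well plates. The next day, the 3114-agent TargetMol anti-cancer compound library was added at 100 nM, with DMSO as vehicle. After 6 days, ATP was read with the CellTiter-Glo 3D Cell Viability Assay. Each value is cell viability relative to vehicle-treated cells.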

SMILES	cell viability
O=c1cc(N2CCOCC2)oc2c(-c3ccccc3)cccc12	1.01
Nc1ncccc1-c1nc2ccc(-c3ccccc3)nc2n1-c1ccc(C2(N)CCC2)cc1 [Miransertib]	0.838
CCOC(N)=O [Urethane]	1.03
Nc1cc(C(F)(F)F)c(-c2cc(N3CCOCC3)nc(N3CCOCC3)n2)cn1 [Buparlisib]	0.906
O=C(NCCN1CCOCC1)Nc1ccc(C(=O)/C=C/c2cccc(N3CCOCC3)n2)cc1	1.09
Cc1c(C(=O)Nc2ccc(N3C[C@@H](C)O[C@@H](C)C3)nc2)cccc1-c1ccc(OC(F)(F)F)cc1	1.08
CSCC[C@H](NC(=O)[C@H](Cc1c[nH]c2ccccc12)NC(=O)CCNC(=O)OC(C)(C)C)C(=O)N[C@@H](CC(=O)O)C(=O)N[C@@H](Cc1ccccc1)C(N)=O [Pentagastrin]	0.739
Cc1ccc(Sc2cncc3sc(C(N)=O)cc23)cc1	1.11
O=C1S/C(=C\c2ccc(OCc3cccc(B(O)O)c3)cc2)C(=O)N1Cc1ccc(F)cc1	1.06
CC(C)NNC(=O)c1ccncc1 [Iproniazid Phosphate]	1.05
CN(C)CCc1c[nH]c2ccc(CS(=O)(=O)N3CCCC3)cc12 [Almotriptan Malate]	0.968
CCOC(=O)c1cc(O)c(O)c(O)c1 [Ethyl gallate]	1.14
CN(c1ncccc1CNc1nc(Nc2ccc3c(c2)CC(=O)N3)ncc1C(F)(F)F)S(C)(=O)=O	0.855 and 1.11
COc1ccc(/C=C/C(=O)NO)c(-c2ccc(-c3ccccc3)cc2)c1	1.06
CC(CNC(=O)c1cccnc1)NC(=O)c1cccnc1 (configuration not stated) [Nicaraven]	1.08
O=C(O)CCC(=O)c1ccc(-c2ccccc2)cc1 [Fenbufen]	1.16
CNc1ccc([N+](=O)[O-])c(Nc2ccc3[nH]ncc3c2)n1	1.06
CN1CCCN(C(=O)c2cccc(-c3ccc(/C=C4/C(=O)Nc5ccc(Cl)cc54)o3)c2)CC1	0.82
CCCCCCCCOc1ccccc1C(=O)Nc1ccc(C(=O)OCC[N+](C)(CC)CC)cc1 [Otilonium bromide]	1.21
CCCCc1ncc(/C=C(\Cc2cccs2)C(=O)O)n1Cc1ccc(C(=O)O)cc1 [Eprosartan Mesylate]	1.13
CC/C(=C(/c1ccc(O)cc1)c1ccc(OCCNC)cc1)c1ccccc1 [Endoxifen E-isomer hydrochloride]	1.04

SMILES	cell viability
CCOC(=O)c1ccc(NC2CCCCC2)c(N)c1 [Ferrostatin-1]	1.02
O=C1c2c(O)ccc(O)c2C(=O)c2c(NCCNCCO)ccc(NCCNCCO)c21 [Mitoxantrone]	0.132
COc1ccc2[nH]cc(/C=C3\C(=O)Nc4ccc(NC(=O)CCN5CCCCC5)cc43)c2c1	1.05
CCN1C(=O)C=CC1=O [N-Ethylmaleimide]	1.16
O=C(NC(Cc1cc(=O)[nH]c2ccccc12)C(=O)O)c1ccc(Cl)cc1 (configuration not stated) [Rebamipide]	1.24
CC(C)c1cc(C(C)C)c(CC(=O)NS(=O)(=O)Oc2c(C(C)C)cccc2C(C)C)c(C(C)C)c1 [Avasimibe]	0.983
O=C(NNc1nc2cc(F)ccc2n2cccc12)c1cnccn1	0.518
CC(C)=CCC[C@](C)(O)[C@H]1CC[C@]2(C)[C@@H]1[C@H](O)C[C@@H]1[C@@]3(C)CC[C@H](O)C(C)(C)[C@@H]3[C@@H](O[C@@H]3O[C@H](CO)[C@@H](O)[C@H](O)[C@H]3O[C@@H]3O[C@@H](C)[C@H](O)[C@@H](O)[C@H]3O)C[C@]12C [Ginsenoside Rg2]	1.15
COC(=O)/C=C/C(=O)OC [Dimethyl fumarate]	1.21
Cc1c(C(=O)N2CCOc3ccc(-c4ccc(N)nc4)cc3C2)ccc(S(C)(=O)=O)c1F	1.05
CC(NCCc1ccc(O)cc1)C(O)c1ccc(O)cc1 (configuration not stated) [Ritodrine hydrochloride]	0.873
C[C@H](Nc1ncnc2nc[nH]c12)c1cc2cccc(Cl)c2c(=O)n1-c1ccccc1 [Duvelisib]	1.04
O=C1CSc2ccccc2N1Cc1cccc(C(F)(F)F)c1	1.04
NC1CCN(c2c(F)cc3c(=O)c(C(=O)O)cn(C4CC4)c3c2Cl)C1 (configuration not stated) [Clinafloxacin]	1.19
C/C1=C/CC[C@H](C)C(=O)C[C@@H](C(C)C)C(=O)C1 [Curdione]	1.07
CC(C)c1cnn2c(NCc3ccccc3)cc(NCCCCCCN)nc12	0.884
CCc1nn(CCCN2CCN(c3cccc(Cl)c3)CC2)c(=O)n1CCOc1ccccc1 [Nefazodone hydrochloride]	1.11
N[C@@H](CCCCNC(=O)C(F)(F)F)C(=O)O [N-6-Trifluoroacetyl-L-lysine]	0.931
O=C(c1ccc(F)c(F)c1Nc1ccc(I)cc1F)N1CC(O)([C@@H]2CCCCN2)C1 [Cobimetinib]	0.974
O=S(=O)(c1cccc2cnccc12)N1CCCNCC1 [Fasudil hydrochloride]	1.04
COc1cc2nc(N3CCCN(C)CC3)nc(NC3CCN(Cc4ccccc4)CC3)c2cc1OC	1.14

SMILES	cell viability
CN1CCN(c2ccc3[nH]c(-c4ccc5[nH]c(-c6ccc(O)cc6)nc5c4)nc3c2)CC1	1.13
O=C(CSc1nc2c(c(=O)n1-c1ccccc1)SCC2)Nc1ccc(-c2ccccc2)cn1	0.913
CCC(C)(C)C(=O)O[C@H]1C[C@@H](C)C=C2C=C[C@H](C)[C@H](CC[C@@H]3C[C@@H](O)CC(=O)O3)[C@H]21 [Simvastatin]	1.14
Cn1cc(C2=C(c3cccc(N)c3)C(=O)NC2=O)c2ccccc21	1.05
CCN1CCN(Cc2ccc(NC(=O)c3ccc(C)c(NC(=O)c4cncc(-c5cccs5)c4)c3)cc2C(F)(F)F)CC1	0.829
N#CC[C@H](C1CCCC1)n1cc(-c2ncnc3[nH]ccc23)cn1 [Ruxolitinib]	1.04
COc1cc(NC(=O)Nc2cccc(CNC(=O)O[C@H]3CCOC3)c2)ccc1-c1cnco1 [Merimepodib]	1.15
CC1CCC(C(C)C)C(O)C1 (racemic) [DL-Menthol]	1.22
CCCc1nn(C)c2c(=O)[nH]c(-c3cc(S(=O)(=O)N4CCN(C)CC4)ccc3OCC)nc12 [Sildenafil citrate]	1.12
COc1cc(O)c(C(=O)/C=C/c2ccccc2)c(OC)c1 [Flavokawain B]	1.16
NNC(=O)c1ccncc1.Nc1ccc(C(=O)O)c(O)c1 [Pasiniazid]	1.16
CN(C[C@@H]1COCCO1)S(=O)(=O)Nc1ccc2ccc3ncc(-c4cnn(C)c4)cc3c(=O)c2c1	1.12
c1ccc(-c2nn3c(c2-c2ccnc4cc(OCCN5CCOCC5)ccc24)CCC3)nc1	0.933
O=C(O)c1ccccc1Nc1cccc(C(F)(F)F)c1 [Flufenamic acid]	1.2
O=C(O)Cn1nnc(-c2cc(N3CCC(Oc4cc(F)ccc4Br)CC3)no2)n1	1.08
Clc1ccc(C(c2ccccc2Cl)C(Cl)Cl)cc1 (configuration not stated) [Mitotan]	1.07
CCCCC/C=C\C/C=C\C/C=C\CCCCC(=O)O [gamma-Linolenic acid]	1.01
c1ccc(CNc2nc(N3CCOc4ccccc43)nc3c2CCCC3)cc1 [ML241 hydrochloride]	1.01
CCCCN1CCCC[C@H]1C(=O)Nc1c(C)cccc1C [Levobupivacaine]	1
CNCc1ccc(C)c(NC(=O)c2ccc(Nc3nc(-c4ccccc4)c4ccccc4n3)cc2)c1	1.2
Nc1ccc(C(=O)O)c(O)c1 [Sodium 4-aminosalicylate dihydrate]	1.18

SMILES	cell viability
Nc1ccc(C(=O)O)c(O)c1 [Aminopar]	0.992
CC(C)n1c(=O)n(C)c2cnc3cc(F)c(-c4ccc(OCCCN5CCCCC5)nc4)cc3c21	0.643
COc1cc(CCc2cc(NC(=O)c3ccc(N4CC(C)NC(C)C4)cc3)n[nH]2)cc(OC)c1 (configuration not stated)	1
O=C(O)/C(Cc1ccccc1[N+](=O)[O-])=N/Nc1nc(-c2ccc(Cl)c(Cl)c2)cs1	0.884
NCCCS(=O)(=O)O [Homotaurine]	1.14
CC(C)[C@H](O)C(=O)N[C@@H](C)C(=O)N[C@@H]1C(=O)N(C)CCc2ccccc21 [Semagacestat]	1.1
Cc1cn(-c2cc(NC(=O)c3ccc(C)c(Nc4nccc(-c5cnccn5)n4)c3)cc(C(F)(F)F)c2)cn1 [Radotinib]	0.972
CCC(=O)O[C@]1(C(=O)SCF)[C@H](C)C[C@H]2[C@@H]3C[C@H](F)C4=CC(=O)C=C[C@]4(C)[C@@]3(F)[C@@H](O)C[C@@]21C [Fluticasone propionate]	0.795
Cc1cc(F)c(C(=O)Nc2cccc(-c3nncn3C(C)C)n2)cc1-n1cnc(C2CC2)c1 [Selonsertib]	0.97
CN1CCC(=C2c3ccccc3CCn3c(C=O)cnc32)CC1 [Alcaftadine]	1.2
O=C(Nc1ccc(CN2CCOCC2)cc1)c1ccc(-c2cccc(Cl)c2)o1	0.775
Nc1ccccc1C(=O)C[C@H](N)C(=O)O [L-Kynurenine]	1.03
COc1ccc(CCC(=O)Nc2nc3ccc(Cl)cc3s2)cc1OC	1
C=C1C(=O)O[C@H]2[C@H]1CC/C(C)=C/CC[C@@]1(C)O[C@@H]21 [Parthenolide]	1.11
Cn1nnc2c(C(N)=O)ncn2c1=O [Temozolomide]	0.813
C[C@]12CC[C@H](O)CC1=CC[C@@H]1[C@@H]2CC[C@]2(C)C(c3cccnc3)=CC[C@@H]12 [Abiraterone]	1.1
CC(C)(C)CC(C)(C)c1ccc(OCCOCC[N+](C)(C)Cc2ccccc2)cc1 [Benzethonium chloride]	1.18
COc1ccc(C=C(C#N)c2cccnc2)cc1OC	1.15
C=CC[N+]1([C@H]2C[C@H]3[C@@H]4CC[C@H]5C[C@H](O)[C@@H](N6CCOCC6)C[C@]5(C)[C@H]4CC[C@]3(C)[C@H]2OC(C)=O)CCCC1 [Rocuronium bromide]	1.03
